Measured values as given in the supplement of paper PMC6206098.
± gives the uncertainty stated by the source. The sequences are guide strands of siRNAs; only the seed at positions 2 to 7 varies.

How the values were obtained:
3LL = assay: cell viability relative to siNT1 control; higher = less toxic; settings: concentration: 10 nM; 96 h; Mus musculus;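 further: Luminescence-based viability of cells reverse transfected in 384-well plates with lipid-complexed siRNAs built on a non-toxic 19mer backbone whose passenger strand carries 2′-O-methyl groups at positions 1 and 2, triplicates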
M565 = assay: cell viability relative to lipid-only control; HeyA8 human ovarian and H460 human lung cancer; M565 mouse liver and 3LL mouse lung cancer; siNT1 is a non-toxic control siRNA; higher = less toxic; settings: concentration: 10 nM; 96 h; Mus musculus
H460 = assay: as above; settings: concentration: 10 nM; 96 h; Homo sapiens
HeyA8 = assay: as above; settings: concentration: 10 nM; 96 h; Homo sapiens
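Wherever cell viability relative to lipid-only control is given: reverse lipid transfection in 384-well plates, in triplicate, of duplexes on a non-toxic 19mer backbone with passenger strand 2′-O-methylated at positions 1 and 2, luminescence viability read-out.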

Row | Sequence | cell viability (3LL) | cell viability (M565) | cell viability (H460) | cell viability (HeyA8)
1 | UGGCUCCACAUGUAAACCAAA | 9.08 ± 2.1% | 31.8 ± 2.2% | 21.1 ± 1.5% | 8.54 ± 0.89%
2 | UCUCUUGACAUGUAAACCAAA | 105 ± 12% | 74.1 ± 12% | 34.2 ± 2.9% | 86.7 ± 2%
3 | UAAAAGCACAUGUAAACCAAA | 91.7 ± 4.8% | 70.4 ± 18% | 65.8 ± 9.2% | 66.4 ± 4%
4 | UACGCCAACAUGUAAACCAAA | 76 ± 2.4% | 71.5 ± 8.5% | 86.9 ± 10% | 95.8 ± 14%
5 | UUCCUACACAUGUAAACCAAA | 25.2 ± 4.6% | 105 ± 20% | 60.9 ± 4.8% | 79.6 ± 5.2%
6 | UGCCGGUACAUGUAAACCAAA | 77.8 ± 6.1% | 47.8 ± 7.9% | 22.2 ± 1.6% | 7.45 ± 0.78%
7 | UUCGCUGACAUGUAAACCAAA | 68.4 ± 18% | 76.9 ± 15% | 78.9 ± 7.1% | 93.6 ± 15%
8 | UGACGGUACAUGUAAACCAAA | 28.2 ± 6% | 27.7 ± 7% | 24.9 ± 3.9% | 27.1 ± 1.6%
9 | UAGACUAACAUGUAAACCAAA | 92.8 ± 2.4% | 72.3 ± 1.6% | 76.3 ± 7.9% | 95.2 ± 4.5%
10 | UAAUGCAACAUGUAAACCAAA | 105 ± 20% | 105 ± 11% | 86.6 ± 11% | 101 ± 8.2%
11 | UAGGCAGACAUGUAAACCAAA | 76.8 ± 14% | 18.2 ± 2.8% | 52.6 ± 3.8% | 31.6 ± 2.6%
12 | UUGUUUUACAUGUAAACCAAA | 92.4 ± 11% | 104 ± 6.2% | 67.9 ± 4.2% | 88.7 ± 1.7%
13 | UAUGAAAACAUGUAAACCAAA | 112 ± 20% | 85.5 ± 21% | 77.3 ± 8.6% | 95.3 ± 8.2%
14 | UAGGUGUACAUGUAAACCAAA | 50.7 ± 13% | 9.32 ± 1.9% | 59.5 ± 6.1% | 54.1 ± 4.8%
15 | UGACUUGACAUGUAAACCAAA | 85 ± 15% | 65.1 ± 3.8% | 63.3 ± 8.9% | 71.6 ± 9.2%
16 | UCGGUGUACAUGUAAACCAAA | 59 ± 13% | 14 ± 2.5% | 47.3 ± 6.1% | 43.3 ± 2.2%
17 | UGCCGCCACAUGUAAACCAAA | 8.14 ± 2.3% | 12.3 ± 5% | 34.8 ± 1.3% | 17.4 ± 2.3%
18 | UUGCUCGACAUGUAAACCAAA | 68.1 ± 6.9% | 60.9 ± 7.6% | 66.9 ± 2.1% | 69.4 ± 8%
19 | UUAGAUCACAUGUAAACCAAA | 61.4 ± 6.9% | 59.1 ± 15% | 66.8 ± 4% | 65 ± 7%
20 | UUAACGAACAUGUAAACCAAA | 102 ± 5.5% | 117 ± 24% | 79.3 ± 10% | 98.7 ± 8.2%

Row | Sequence | cell viability (3LL) | cell viability (M565) | cell viability (H460) | cell viability (HeyA8)
21 | UCAAUAAACAUGUAAACCAAA | 88.5 ± 11% | 78.2 ± 12% | 55.8 ± 2.9% | 84.3 ± 8.4%
22 | UGUACGUACAUGUAAACCAAA | 95.3 ± 6% | 70.3 ± 6.2% | 84.6 ± 9.1% | 99.6 ± 5.4%
23 | UACAUCGACAUGUAAACCAAA | 91.1 ± 10% | 65.7 ± 11% | 73.3 ± 15% | 75.1 ± 1.1%
24 | UACGAGGACAUGUAAACCAAA | 94.1 ± 14% | 84.4 ± 11% | 69.2 ± 12% | 68.7 ± 3.3%
25 | UGCGGUCACAUGUAAACCAAA | 27.6 ± 5.9% | 11.2 ± 3.1% | 15 ± 2.5% | 12.4 ± 1.5%
26 | UACGUCUACAUGUAAACCAAA | 81.9 ± 3.2% | 31.6 ± 11% | 75.4 ± 8% | 50 ± 9.5%
27 | UUCGCACACAUGUAAACCAAA | 73.3 ± 14% | 108 ± 23% | 89 ± 14% | 86 ± 4.2%
28 | UUGGGUUACAUGUAAACCAAA | 20.4 ± 3.1% | 64.9 ± 4.2% | 63.6 ± 12% | 64.4 ± 4.5%
29 | UUCAGGUACAUGUAAACCAAA | 36.7 ± 16% | 19.4 ± 4.4% | 42.4 ± 4.3% | 62.2 ± 1.5%
30 | UUGAUAGACAUGUAAACCAAA | 67 ± 2.5% | 96.7 ± 12% | 51.2 ± 7.8% | 91.2 ± 6.4%
31 | UUCCGCUACAUGUAAACCAAA | 70.7 ± 21% | 73.2 ± 11% | 46.8 ± 3.8% | 59.3 ± 8.5%
32 | UGAGGUAACAUGUAAACCAAA | 92.3 ± 11% | 19.1 ± 6% | 73.4 ± 10% | 74.4 ± 5.3%
33 | UGGGCAGACAUGUAAACCAAA | 13.5 ± 3.2% | 9.95 ± 2.5% | 10.7 ± 1.9% | 1.28 ± 0.12%
34 | UUAUGUCACAUGUAAACCAAA | 8.87 ± 1.3% | 55 ± 9.2% | 32.1 ± 4% | 47.9 ± 6.4%
35 | UAUUAGAACAUGUAAACCAAA | 110 ± 20% | 89.9 ± 5.4% | 100 ± 9.2% | 96 ± 9.9%
36 | UCCGUGCACAUGUAAACCAAA | 19.6 ± 2.5% | 6.2 ± 1.1% | 23.3 ± 3.6% | 9.26 ± 0.75%
37 | UCCUGAUACAUGUAAACCAAA | 84.7 ± 18% | 72.9 ± 7.2% | 75.5 ± 7.3% | 77.1 ± 2.4%
38 | UUUAGUGACAUGUAAACCAAA | 86.5 ± 3.2% | 66.4 ± 8.8% | 75.4 ± 7.7% | 94.7 ± 4.8%
39 | UGUAAGCACAUGUAAACCAAA | 32.6 ± 3.8% | 26.5 ± 2.4% | 41 ± 2.3% | 53.9 ± 1.1%
40 | UUGUCCUACAUGUAAACCAAA | 29.7 ± 0.74% | 31.1 ± 5.5% | 41.8 ± 7.6% | 80.5 ± 5.9%

Row | Sequence | cell viability (3LL) | cell viability (M565) | cell viability (H460) | cell viability (HeyA8)
41 | UAUCAGUACAUGUAAACCAAA | 112 ± 3.8% | 113 ± 12% | 60 ± 4.9% | 27.6 ± 3.7%
42 | UAGCCGUACAUGUAAACCAAA | 48.5 ± 1.3% | 15.7 ± 2.2% | 56.9 ± 14% | 74.2 ± 3.6%
43 | UAAUAGGACAUGUAAACCAAA | 96.6 ± 6.3% | 93.9 ± 7.4% | 75.1 ± 3.4% | 87.5 ± 9.3%
44 | UGAUGCGACAUGUAAACCAAA | 24.2 ± 4.8% | 27 ± 6.1% | 54.2 ± 8.3% | 51.9 ± 3.6%
45 | UACAGUUACAUGUAAACCAAA | 74.6 ± 5.7% | 49.1 ± 2.9% | 87.5 ± 7.7% | 69.8 ± 5.9%
46 | UAAGGAAACAUGUAAACCAAA | 83.3 ± 4.6% | 69.4 ± 3.2% | 66.6 ± 8.7% | 93.2 ± 8.3%
47 | UGCCACAACAUGUAAACCAAA | 75.9 ± 12% | 50.3 ± 8.3% | 36 ± 9.7% | 47.9 ± 3.6%
48 | UUAUGAAACAUGUAAACCAAA | 64.5 ± 9.9% | 72.2 ± 12% | 78.7 ± 7.7% | 91.1 ± 4.6%
49 | UUGGUUAACAUGUAAACCAAA | 97.9 ± 6.3% | 87.1 ± 12% | 71.1 ± 7.9% | 96.7 ± 5.7%
50 | UUGUAACACAUGUAAACCAAA | 52.5 ± 6% | 52.6 ± 7.3% | 63.5 ± 11% | 80.1 ± 2.7%
51 | UGGGAUAACAUGUAAACCAAA | 87.2 ± 11% | 41.9 ± 4.9% | 53.6 ± 3.2% | 38.8 ± 2.9%
52 | UUUGGAAACAUGUAAACCAAA | 104 ± 5.2% | 74.2 ± 11% | 95.3 ± 12% | 97.7 ± 5.5%
53 | UAUAUAAACAUGUAAACCAAA | 99.1 ± 16% | 97.9 ± 12% | 76 ± 15% | 98.1 ± 13%
54 | UAGUAAAACAUGUAAACCAAA | 90.8 ± 7.7% | 75.4 ± 10% | 71.9 ± 8.2% | 86.6 ± 6.6%
55 | UCGAACCACAUGUAAACCAAA | 62.2 ± 15% | 51.7 ± 2.1% | 56.7 ± 5.4% | 73.8 ± 4%
56 | UGUGUUCACAUGUAAACCAAA | 58.3 ± 12% | 49.9 ± 6.7% | 51.6 ± 3.7% | 7.29 ± 0.15%
57 | UUUUGAUACAUGUAAACCAAA | 89.8 ± 2.8% | 103 ± 16% | 63.9 ± 7.5% | 75.6 ± 0.79%
58 | UCCACCUACAUGUAAACCAAA | 105 ± 13% | 42.3 ± 17% | 46 ± 8.2% | 49.6 ± 9.6%
59 | UGGAGAAACAUGUAAACCAAA | 84.2 ± 5.8% | 40.6 ± 11% | 72.2 ± 9.9% | 51.6 ± 25%
60 | UCAGAAUACAUGUAAACCAAA | 93.6 ± 15% | 50.1 ± 4% | 56.1 ± 8.3% | 60.6 ± 4.8%
